These results are taken from the supplement of paper PMC9446081.

Screen size: about 39,000 compounds; about 220 (0.56%) showed activity. Some of the results follow.
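Note: static incubation at 37 °C against the wild-type strain, values averaged over two biological replicates.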

This assay deals with Escherichia coli K-12 BW25113. In words: relative growth (OD600 normalised to plate interquartile mean) (fraction); higher = less growth inhibition, active = 0.2 or less. The note with it: 50 µM; LB; incubation time: overnight (16-24 h).
Regarding `CCOC(=O)OC(C)OC(=O)C1N2C(=O)C(NC(=O)C(N)c3ccccc3)C2SC1(C)C.Cl` (stereo not drawn), the relative growth was active: 0.0511.
The figure for `Cc1ccc(S(=O)(=O)N(C)C[C@@H]2Oc3ccc(NC(=O)c4ccncc4)cc3CC(=O)N([C@@H](C)CO)C[C@@H]2C)cc1` is inactive: 0.99; for `Cc1noc(C)c1NC(=O)N(C)C[C@@H]1OCCCC[C@@H](C)Oc2ccc(NC(=O)Cc3ccccc3)cc2C(=O)N([C@@H](C)CO)C[C@@H]1C` it is inactive: 1.01; for `C[C@@H]1CCCCO[C@H](CN(C)C(=O)Nc2ccccc2)[C@H](C)CN([C@@H](C)CO)C(=O)c2cc(NC(=O)Cc3ccccc3)ccc2O1` it is inactive: 0.98.
As to `C=CCC[C@H](Cc1ccc(F)cc1)C(=O)OC[C@H]1CCCN1C(=O)[C@@H](CC=C)CC(=O)N(CCO)Cc1ccccc1`, the relative growth is inactive: 0.991.
The figure for `COc1ccccc1S(=O)(=O)N[C@@H]1CC[C@H](CCNC(=O)C2CCOCC2)O[C@H]1CO` is inactive: 0.969; for `COc1ccc2c3c([nH]c2c1)[C@H](CO)N(C[C@]13CCN(CC1)C(=O)c1cccnc1)C(=O)c1cccnc1` it is inactive: 1.01.
Turning to `C[C@H](CO)N1C[C@H](C)[C@H](CN(C)Cc2ccc3c(c2)OCO3)Oc2c(NC(=O)c3ccc(-c4nccs4)cc3)cccc2C1=O`, the relative growth was inactive: 1.
With `C[C@H]1CN([C@@H](C)CO)S(=O)(=O)c2ccc(C3=CCCCC3)cc2O[C@@H]1CN(C)Cc1cncnc1`, the relative growth is inactive: 1.04.
To `CC(C)NC(=O)Nc1ccc2c(c1)CC(=O)N([C@H](C)CO)C[C@@H](C)[C@H](CN(C)S(=O)(=O)c1cccs1)O2` belongs inactive: 1.01; to `C[C@@H]1CN([C@H](C)CO)C(=O)c2cc(NS(=O)(=O)c3ccc(F)cc3)ccc2O[C@@H](C)CCCCO[C@H]1CN(C)Cc1ccccc1`, inactive: 0.999.
To `CC(C)(C)CN` belongs inactive: 1.01.
The figure for `C[C@H]1CN([C@@H](C)CO)C(=O)Cc2cc(NC(=O)NC3CCCCC3)ccc2O[C@@H]1CN(C)Cc1ccc(Cl)c(Cl)c1` is inactive: 1.02; for `COCCNC(=O)C[C@@H]1CC[C@@H](NS(=O)(=O)c2ccc(C)cc2)[C@@H](CO)O1` it is inactive: 0.994.
In the case of `C[C@H]1CN([C@@H](C)CO)S(=O)(=O)c2ccc(C#CC(C)(C)O)cc2O[C@H]1CN(C)Cc1ccncc1`, the relative growth is inactive: 1.
The figure for `COc1ccc(NC(=O)Nc2ccc3c(c2)C(=O)N([C@@H](C)CO)C[C@H](C)[C@@H](CN(C)C(=O)C2CCCCC2)OCCCC[C@@H](C)O3)cc1` is inactive: 1.02; for `C[C@@H]1CN([C@H](C)CO)C(=O)c2cccc(NC(=O)CCCCCC(=O)Nc3ccccc3N)c2O[C@@H]1CN(C)C(=O)Nc1ccccc1` it is inactive: 0.978.
To `C[C@@H]1CCCCO[C@@H](CN(C)C(=O)NC2CCCCC2)[C@@H](C)CN([C@@H](C)CO)C(=O)c2cc(NC(=O)Nc3ccc4c(c3)OCO4)ccc2O1` belongs inactive: 1.01; to `C[C@H](CO)N1C[C@H](C)[C@@H](CN(C)Cc2ccc(Oc3ccccc3)cc2)Oc2c(NC(=O)CCC(F)(F)F)cccc2C1=O`, inactive: 0.943.
The figure for `Cc1noc(C)c1NC(=O)N(C)C[C@H]1Oc2ccc(NC(=O)CCN3CCOCC3)cc2CC(=O)N([C@H](C)CO)C[C@H]1C` is inactive: 0.981; for `COc1ccc(S(=O)(=O)Nc2ccc3c(c2)CC(=O)N([C@H](C)CO)C[C@H](C)[C@@H](CN(C)CC2CC2)O3)cc1` it is inactive: 1.03.
In the case of `C[C@@H]1CN([C@H](C)CO)C(=O)c2cccc(NS(=O)(=O)c3ccccc3)c2O[C@@H]1CN(C)S(=O)(=O)c1cn(C)cn1`, the relative growth is inactive: 0.994.
The figure for `C[C@@H]1CN([C@H](C)CO)C(=O)CCCn2nncc2CO[C@@H]1CN(C)S(=O)(=O)c1ccc(Cl)cc1` is inactive: 0.981.
On to `C[C@@H]1CN([C@H](C)CO)C(=O)Cc2cc(NC(=O)Cc3cn(C)c4ccccc34)ccc2O[C@H]1CN(C)S(=O)(=O)c1cn(C)cn1`, for which the relative growth was inactive: 0.999.
To `C[C@@H]1CN([C@@H](C)CO)C(=O)c2cccc(NC(=O)C3CCCCC3)c2O[C@H]1CN(C)Cc1ccc(C(=O)Nc2ccccc2N)cc1` belongs inactive: 1.04.
To `Cn1cc(CN2C[C@H]3CCCO[C@H]3[C@H](NS(C)(=O)=O)C2)cn1` belongs inactive: 0.979.
To `Cc1noc(C)c1NC(=O)N(C)C[C@H]1Oc2ccc(NC(=O)Cn3cnnn3)cc2CC(=O)N([C@@H](C)CO)C[C@H]1C` belongs inactive: 1; to `Cc1ccc(S(=O)(=O)N(C)C[C@@H]2Oc3ccc(NC(=O)Nc4ccc(C(F)(F)F)cc4)cc3C(=O)N([C@@H](C)CO)C[C@@H]2C)cc1`, inactive: 1.01.
Take `C[C@H](CO)N1C[C@H](C)[C@H](CN(C)C(=O)CN(C)C)Oc2ncc(C#CC(C)(C)O)cc2C1=O`: the relative growth is inactive: 0.999.
To `C[C@@H]1CN([C@@H](C)CO)C(=O)c2cc(NS(=O)(=O)c3ccc(F)cc3)ccc2O[C@@H]1CN(C)Cc1ccc(-c2ccccc2)cc1` belongs inactive: 0.984; to `C[C@@H]1CN([C@@H](C)CO)C(=O)Cc2cc(NC(=O)Cn3cnnn3)ccc2O[C@H]1CN(C)Cc1ccc(C(=O)O)cc1`, inactive: 1.01.
Regarding `Cc1ccc(S(=O)(=O)Nc2cccc3c2O[C@@H](CN(C)C(=O)NC(C)C)[C@H](C)CN([C@H](C)CO)C3=O)cc1`, the relative growth was inactive: 0.997.
The figure for `CS(=O)(=O)N1CCOC[C@@]2(C1)CN(S(=O)(=O)C1CC1)CCO2` is inactive: 1.05; for `CC(=O)N1CCO[C@H]2CCN(C(=O)c3ccn(C)n3)C[C@H]21` it is inactive: 0.994.
As to `CC(C)NC(=O)Nc1cccc2c1O[C@H](CN(C)S(=O)(=O)c1cn(C)cn1)[C@@H](C)CN([C@H](C)CO)C2=O`, the relative growth is inactive: 1.01.
The figure for `C[C@@H]1CN([C@@H](C)CO)C(=O)c2cc(NC(=O)C3CC3)ccc2O[C@@H]1CN(C)S(=O)(=O)c1cn(C)cn1` is inactive: 0.899; for `O=C(O)C1CCC1` it is inactive: 1.02; for `C[C@@H]1CN([C@@H](C)CO)C(=O)c2cccc(NS(=O)(=O)c3ccccc3)c2O[C@H]1CN(C)Cc1ccc(-c2ccccc2)cc1` it is inactive: 1.02.
To `C[C@@H]1O[C@@H](O[C@@H]2[C@@H](O)[C@H](O)[C@@H](CO)O[C@H]2c2c(O)cc(O)c3c(=O)cc(-c4ccc(O)cc4)oc23)[C@H](O)[C@H](O)[C@H]1O` belongs inactive: 0.972.
To `COc1ccc2c(=O)c(OC)c(-c3ccccc3)oc2c1` belongs inactive: 1.04; to `C=CCOC(=O)N(C)C[C@@H]1OCCCC[C@H](C)Oc2ccc(NC(=O)Nc3ccccc3)cc2C(=O)N([C@H](C)COC(=O)c2ccccc2)C[C@H]1C`, inactive: 1.01; to `CO[C@H]1CN(C)C(=O)c2cc(NC(=O)CC(F)(F)F)ccc2OC[C@@H](C)N(S(=O)(=O)c2cn(C)cn2)C[C@H]1C`, inactive: 0.975.
Regarding `CC(C)NC(=O)Nc1ccc2c(c1)C(=O)N([C@@H](C)CO)C[C@H](C)[C@H](CN(C)Cc1ccc3c(c1)OCO3)O2`, the relative growth is inactive: 0.934.
For `C[C@@H]1CCCCO[C@H](CN(C)C(=O)Nc2ccccc2)[C@@H](C)CN([C@@H](C)CO)C(=O)c2cc(NC(=O)c3ccccc3)ccc2O1`, the relative growth is inactive: 1.03.
To `Cc1cccc(C(=O)NN)c1` belongs inactive: 1.
To `C[C@H](CO)N1C[C@H](C)[C@H](CN(C)C(=O)Nc2ccc(F)cc2)Oc2c(NC(=O)Nc3ccc(C(F)(F)F)cc3)cccc2C1=O` belongs inactive: 0.987; to `COc1ccc(S(=O)(=O)N(C)C[C@@H]2OCCCC[C@H](C)Oc3ccc(NC(=O)c4ccccc4)cc3C(=O)N([C@H](C)CO)C[C@H]2C)cc1`, inactive: 1.04.
To `CC(=O)O[C@H]1CC(C)(C)C[C@H]2[C@]13CO[C@@]21CC[C@@H]2[C@@]4(C)CC[C@H](O[C@@H]5O[C@H](C(=O)O)[C@@H](O)[C@H](O[C@@H]6O[C@H](CO)[C@H](O)[C@H](O)[C@H]6O[C@@H]6O[C@@H](C)[C@H](O)[C@@H](O)[C@H]6O)[C@H]5O[C@@H]5O[C@H](CO)[C@@H](O)[C@H](O)[C@H]5O)C(C)(C)[C@@H]4CC[C@@]2(C)[C@]1(C)C[C@H]3O` belongs inactive: 0.974; to `C[C@@H]1CN([C@@H](C)CO)C(=O)Cc2cc(NS(=O)(=O)c3ccc(F)cc3)ccc2O[C@@H]1CN(C)S(=O)(=O)c1cn(C)cn1`, inactive: 0.951; to `C[C@@H]1CN([C@@H](C)CO)C(=O)c2cc(NC(=O)Cn3cnnn3)ccc2O[C@@H]1CN(C)S(C)(=O)=O`, inactive: 0.98.
Turning to `COCC#Cc1ccc2c(c1)O[C@@H](CN(C)C(=O)c1ccccc1F)[C@H](C)CN([C@H](C)CO)S2(=O)=O`, the relative growth is inactive: 0.998.
The figure for `NCC[C@@H]1CC[C@@H](NC(=O)C2CCCC2)[C@H](CO)O1` is inactive: 0.981.
In the case of `C[C@H](CO)N1C[C@H](C)[C@H](CN(C)C(=O)NC2CCCCC2)OCCCC[C@H](C)Oc2ccc(NS(=O)(=O)c3cccs3)cc2C1=O`, the relative growth was inactive: 1.01.
For `C[C@H](CO)N1C[C@H](C)[C@@H](CN(C)C(=O)c2cccnc2)Oc2ncc(-c3ccc(C(=O)N(C)C)cc3)cc2C1=O`, the relative growth was inactive: 0.996.
To `CC(C)NC(=O)Nc1cccc2c1O[C@H](CN(C)Cc1ccc(-c3ccccc3)cc1)[C@H](C)CN([C@@H](C)CO)C2=O` belongs inactive: 1.
The figure for `COc1ccc(NC(=O)N(C)C[C@H]2OCCCC[C@@H](C)Oc3ccc(NC(=O)Nc4ccccc4)cc3C(=O)N([C@H](C)CO)C[C@@H]2C)cc1` is inactive: 1.
Turning to `O=C(NCCNS(=O)(=O)c1cccc2nonc12)[C@H]1COc2ccccc2O1`, the relative growth was inactive: 0.966.
The figure for `COc1cccc(S(=O)(=O)Nc2ccc3c(c2)C(=O)N(C)C[C@@H](OC)[C@H](C)CN(C(=O)Cc2cccnc2)[C@@H](C)CO3)c1` is inactive: 0.996.
